# Measurements: PubChem BioAssay AID504333 (National Center for Advancing Translational Sciences (NCATS), 2011)
# The whole screen tested about 360,000 compounds, of which about 16,000 (4.4%) were called active. Inconclusive results, whose numbers are uncertain, are shown with a selection of clear calls. The call rests on the fitted dose curve; in most records, active means well fitted inhibition curve with a large enough effect; inconclusive means small, poorly fitted or top-dose-only effect; inactive means no such curve, though single readings can be large or run the other way. Potencies of inconclusive entries are doubtful fits and often do not repeat.
# Molecular target: Bromodomain adjacent to zinc finger domain protein 2B (Homo sapiens) (UniProt Q9UIF8)
# Experiment: qHTS Assay for Inhibitors of BAZ2B; further: nearly all actives have a fitted effect of over 60% in size
# Conditions: AlphaScreen BAZ2B-H3K14Ac peptide displacement; activity change, negative = inhibition: at 114 µM (top of the series)
# Method in brief: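 AlphaScreen displacement of biotin-H3(5-23)K14Ac peptide (50 nM final) from BAZ2B (50 nM final) in PBS pH 7.4, 0.01% Tween-20; complex preformed 30 min RT, then compounds (top 110 uM) 30 min RT, beads 20 min dark.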
# On the % scale 0 is the no-effect control and ±100 the full control effect; potency means the concentration at half of the fitted maximal effect; tags describe the fitted curve by direction and shape.
# Sequence of UniProt Q9UIF8 (Q9UIF8 whole entry, looked up, the tested form may be a part): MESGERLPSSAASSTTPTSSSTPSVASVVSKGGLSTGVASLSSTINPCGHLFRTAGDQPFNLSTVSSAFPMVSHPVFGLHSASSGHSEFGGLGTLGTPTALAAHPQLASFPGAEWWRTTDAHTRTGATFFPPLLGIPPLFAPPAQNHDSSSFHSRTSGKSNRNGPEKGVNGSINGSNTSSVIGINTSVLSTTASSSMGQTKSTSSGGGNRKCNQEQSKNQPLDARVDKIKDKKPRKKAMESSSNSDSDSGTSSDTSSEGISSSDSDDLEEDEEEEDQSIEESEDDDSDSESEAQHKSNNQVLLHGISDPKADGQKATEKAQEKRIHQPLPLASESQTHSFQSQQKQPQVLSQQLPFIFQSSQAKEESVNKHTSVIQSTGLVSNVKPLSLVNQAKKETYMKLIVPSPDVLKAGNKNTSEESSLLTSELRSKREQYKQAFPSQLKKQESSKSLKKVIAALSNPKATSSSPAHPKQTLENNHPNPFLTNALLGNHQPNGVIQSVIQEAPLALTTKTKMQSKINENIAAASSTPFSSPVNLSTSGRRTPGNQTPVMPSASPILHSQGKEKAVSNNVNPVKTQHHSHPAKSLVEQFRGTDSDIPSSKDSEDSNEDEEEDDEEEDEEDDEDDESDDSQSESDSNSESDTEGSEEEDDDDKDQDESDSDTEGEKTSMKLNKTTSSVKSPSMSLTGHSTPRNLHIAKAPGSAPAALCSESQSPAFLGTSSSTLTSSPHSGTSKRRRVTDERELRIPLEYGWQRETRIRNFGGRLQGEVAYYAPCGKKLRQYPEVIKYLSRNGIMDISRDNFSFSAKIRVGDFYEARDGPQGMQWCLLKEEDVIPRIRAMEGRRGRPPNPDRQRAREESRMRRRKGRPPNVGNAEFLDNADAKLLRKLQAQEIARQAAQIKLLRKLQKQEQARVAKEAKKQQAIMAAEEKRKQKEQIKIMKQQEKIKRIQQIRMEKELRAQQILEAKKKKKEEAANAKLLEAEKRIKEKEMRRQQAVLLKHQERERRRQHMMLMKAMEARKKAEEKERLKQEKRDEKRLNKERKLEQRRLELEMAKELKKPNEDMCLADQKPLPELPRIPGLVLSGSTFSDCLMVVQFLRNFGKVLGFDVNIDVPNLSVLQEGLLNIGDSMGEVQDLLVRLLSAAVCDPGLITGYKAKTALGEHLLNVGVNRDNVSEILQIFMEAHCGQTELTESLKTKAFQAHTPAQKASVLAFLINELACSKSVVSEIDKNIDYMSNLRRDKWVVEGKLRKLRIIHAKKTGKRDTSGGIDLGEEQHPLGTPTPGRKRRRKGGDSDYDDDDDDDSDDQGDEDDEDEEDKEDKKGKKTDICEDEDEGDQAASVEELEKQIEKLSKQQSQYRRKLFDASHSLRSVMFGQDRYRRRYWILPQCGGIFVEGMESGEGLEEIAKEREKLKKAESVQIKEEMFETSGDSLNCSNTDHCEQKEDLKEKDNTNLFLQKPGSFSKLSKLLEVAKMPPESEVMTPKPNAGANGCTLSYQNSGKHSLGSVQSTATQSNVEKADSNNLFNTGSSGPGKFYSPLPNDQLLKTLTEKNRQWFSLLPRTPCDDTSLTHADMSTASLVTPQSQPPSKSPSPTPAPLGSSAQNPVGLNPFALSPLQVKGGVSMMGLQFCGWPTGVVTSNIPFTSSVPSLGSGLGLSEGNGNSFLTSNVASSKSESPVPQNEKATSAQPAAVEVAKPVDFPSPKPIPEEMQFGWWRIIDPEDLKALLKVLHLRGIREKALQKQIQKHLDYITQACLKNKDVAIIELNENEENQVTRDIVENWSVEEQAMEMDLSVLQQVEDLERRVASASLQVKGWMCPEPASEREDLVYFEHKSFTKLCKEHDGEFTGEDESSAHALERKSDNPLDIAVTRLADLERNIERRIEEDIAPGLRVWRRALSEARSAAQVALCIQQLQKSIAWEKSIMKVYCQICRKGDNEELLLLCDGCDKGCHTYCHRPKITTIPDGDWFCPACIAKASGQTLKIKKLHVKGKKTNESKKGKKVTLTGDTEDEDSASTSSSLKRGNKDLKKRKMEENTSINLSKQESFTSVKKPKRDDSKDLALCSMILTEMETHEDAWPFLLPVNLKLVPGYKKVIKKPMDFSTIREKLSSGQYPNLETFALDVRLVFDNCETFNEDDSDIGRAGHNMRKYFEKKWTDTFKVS
SMILES,Potency,"activity change, negative = inhibition"
Cc1ccc2cc(CN(Cc3ccc4c(c3)OCO4)Cc3nnnn3Cc3ccco3)c(=O)[nH]c2c1,"inconclusive: 79.4 µM [inhibitor, single point]",–
CC(=O)C1=C(C)Nc2ncnn2C1c1cccc(OCc2ccccc2)c1 (centres undefined),–,inactive: 8.67%
CC(=O)Nc1ccc(C(=O)CSc2nnnn2C)cc1,–,inactive: -1.07%
N#Cc1c(N)sc(=S)c2c1CCCC2,active: 39.8 µM,–
CC(C)c1cnc2c(c1SCC(=O)NC(C)(C)C)c(=O)n(C)c(=O)n2C,–,inactive: 6.06%
COc1ccc(N2CCN(C(=O)CCCOc3cc(=O)n(C)c4ccccc34)CC2)cc1,"inconclusive: 79.4 µM [inhibitor, single point]",–
CCCCN(CC)C(=O)c1cccc(Cl)c1,–,inactive: 9.01%
CN(NC(=O)NN)c1ncc(C(F)(F)F)cc1Cl,–,inactive: -2.46%
CCOc1ccc(NS(=O)(=O)c2c(C)nc3sc(C)c(C)n3c2=O)cc1,–,inactive: -26.1%
CCOC(=O)C1CCN(C(=O)c2ccccc2NC(=O)c2nsc3ccccc23)CC1,–,inactive: 2.06%
CC1CCN(S(=O)(=O)c2ccc(C(=O)Nc3nnc(-c4ccco4)o3)cc2)CC1,"inconclusive: 89.1 µM [inhibitor, single point]",–
Cc1nc2nc(NC(=O)c3ccc(C(C)(C)C)cc3)[nH]n2c(=O)c1C,–,inactive: -5.16%
Cc1cc(C)c(C(=O)COC(=O)CCn2c(C)csc2=O)cc1C,"inconclusive: 44.7 µM [inhibitor, partial curve]",–
CCOC(=O)CNC(=O)CSc1nc(-c2ccccc2)ns1,–,inactive: -5.09%
CC(=O)c1c(C(=O)O)[nH]c(C(=O)O)c1C,"inconclusive: 56.2 µM [inhibitor, partial curve]",–
CCn1cc(/C=C(\NC(=O)c2ccc(OC)c(OC)c2)C(=O)N2CCOCC2)c2ccccc21,"inconclusive: 89.1 µM [inhibitor, single point]",–
O=[N+]([O-])c1cc(-c2cnc3ccccc3n2)ccc1Oc1ccc(F)cc1,"inconclusive: 79.4 µM [inhibitor, partial curve]",–
COc1ccc(NCC(=O)N/N=C/C(C)c2ccccc2)cc1 (centres undefined),"inconclusive: 44.7 µM [inhibitor, partial curve]",–
CCOC(=O)C1CCN(C(=O)c2cc3sc(C)cc3n2C)CC1,"inconclusive: 70.8 µM [inhibitor, single point]",–
Cc1cccc(C)c1N1CCN(C(=O)N2CCCCC2)CC1,–,inactive: -34.6%
COc1ccc(C)c2sc(NC(=O)c3ccc(S(=O)(=O)N(C)C)cc3)nc12,–,inactive: 6.56%
Cc1nc(N2CCOCC2)nc(N2CCCC2)c1[N+](=O)[O-],"inconclusive: 79.4 µM [inhibitor, single point]",–
CC(C)c1ccc(S(=O)(=O)N2CCN(Cc3cccc(F)c3)CC2)cc1,–,inactive: 16.4%
CCCCOc1ccccc1C1CC(=O)Nc2ccc3ccccc3c21 (centres undefined),"inconclusive: 79.4 µM [inhibitor, partial curve]",–
COc1ccc(C(=O)N[C@H](C(=O)N2CCN(c3ccccc3F)CC2)C(C)C)cc1,–,inactive: -5.92%

SMILES,Potency,"activity change, negative = inhibition"
Cc1ccc(NC(=O)Cc2nnc(SCC(=O)NC3=NCCS3)n2C)cc1,"inconclusive: 89.1 µM [inhibitor, single point]",–
O=C(NCCCN1CCOCC1)c1ccc(CSCc2cccc(Cl)c2)o1,"inconclusive: 89.1 µM [inhibitor, single point]",–
COc1ccc(OCC(=O)Nc2nc3ccc(NC(C)=O)cc3s2)cc1,"inconclusive: 70.8 µM [inhibitor, partial curve]",–
Cc1ccc(O)c(C(=O)/C=C/c2ccc3c(c2)OCCCO3)c1,active: 28.2 µM,–
CCN(CC)CCNC(=O)c1ccc(NC(=O)c2cn(-c3ccc(F)cc3)nc2-c2cccc(OC)c2)cc1,"inconclusive: 89.1 µM [inhibitor, single point]",–
NC(=O)c1c(N)sc2c1CCCC2,"inconclusive: 79.4 µM [inhibitor, single point]",–
O=[N+]([O-])c1ccc(O)c(Nc2c([N+](=O)[O-])ccc3nonc23)c1,active: 50.1 µM,–
CC(=O)Nc1ccc(NC(=O)CCCc2c[nH]c3ccccc23)cc1,"inconclusive: 56.2 µM [inhibitor, partial curve]",–
Cc1cccn2c(=O)c3cc(C(=O)NCCN4CCOCC4)c(=N)n(CCc4ccccc4)c3nc12,"inconclusive: 70.8 µM [inhibitor, single point]",–
COc1ccc(N2CCN(CCCn3c(=S)[nH]c4ccccc4c3=O)CC2)cc1,active: 28.2 µM,–
COc1ccc(N2CCN(C(CNS(=O)(=O)c3ccc(OC)c(C)c3)c3ccco3)CC2)cc1 (centres undefined),active: 25.1 µM,–
COc1ccc(C)cc1-n1c(-c2ccc(Cl)cc2)cc2c1CC(C)(C)CC2=O,"inconclusive: 8.91 µM [inhibitor, partial curve]",–
COc1ccc(C(=O)Nc2oc(-c3ccccc3)c(-c3ccccc3)c2C#N)cc1,"inconclusive: 89.1 µM [inhibitor, single point]",–
O=C(CNC(=O)c1ccc(Br)o1)NNC(=O)c1ccccc1F,–,inactive: -15.1%
CCC(Sc1nc(C)cc(=O)[nH]1)C(=O)Nc1nc2c(s1)CCCC2 (centres undefined),"inconclusive: 89.1 µM [inhibitor, single point]",–
O=S(=O)(c1ccc(Cl)cc1)c1nnn2c1nc(NC1CCCC1)c1sccc12,–,inactive: -14%
O=C(CSc1ccccc1C(=O)NCCCN1CCCC1=O)NCc1ccco1,–,inactive: -1.82%
C#CCOC(=O)CCCNc1ccc([N+](=O)[O-])cc1[N+](=O)[O-],active: 50.1 µM,–
CC1=NN(c2ccc([N+](=O)[O-])cc2)C(=O)/C1=C\N(C)C,"inconclusive: 50.1 µM [inhibitor, partial curve]",–
Cc1cc(NC(=O)N2CCC(CN3CCCCCC3)CC2)ccc1Br,–,inactive: -7.08%
O=C1/C(=C\c2ccccn2)SC(=S)N1Nc1ncc(C(F)(F)F)cc1Cl,active: 79.4 µM,–
Cc1ccc(NC(=O)CCC(=O)NNC(=O)CCc2ccccc2)c(C)c1,–,inactive: -8.39%
COc1ccc(CCNC(=O)C(=O)NCc2cccs2)cc1OC,–,inactive: 21.8%
COc1ccc(/C=C/C(=O)Nc2nc(N)n(-c3ccccc3)n2)cc1,active: 50.1 µM,–
CCn1cc(C(=O)NCCCOC(C)C)c(=O)c2cc(S(=O)(=O)N3CCOCC3)ccc21,"inconclusive: 3.55 µM [inhibitor, single point]",–

SMILES,Potency,"activity change, negative = inhibition"
CC1(C)C(Cl)C(=O)C(C(=O)c2ccccc2)C(=O)C1Cl (centres undefined),–,inactive: -3.66%
COc1cc(N=Nc2c(O)c3ccccc3[nH]c2=O)c(OC)cc1N=Nc1ccccc1,"inconclusive: 56.2 µM [inhibitor, partial curve]",–
CSc1nc2nccc(-c3ccc(-c4ccccc4)cc3)n2n1,"inconclusive: 89.1 µM [inhibitor, single point]",–
CC1c2cc3c(cc2CCN1CC(=O)Nc1ccc(S(=O)(=O)N2CCCC2)cc1)OCCCO3 (centres undefined),"inconclusive: 79.4 µM [inhibitor, single point]",–
CCc1ccc(OCC2c3cc(OC)c(OC)cc3CCN2C(=O)c2ccc(S(=O)(=O)N3CCCC3)cc2)cc1 (centres undefined),"inconclusive: 15.8 µM [inhibitor, partial curve]",–
Cc1ccccc1NC(=S)NNC(=O)c1cccnc1,–,inactive: -1.54%
CC(C)N(Cc1ccccc1)C(=O)c1nc(-c2ccc(Cl)cc2)n2c1CCCCC2,active: 35.5 µM,–
CCOc1ccc(-n2c(C)cc(/C=C3/C(=N)N4C(=NC3=O)SN=C4S(C)(=O)=O)c2C)cc1,active: 56.2 µM,–
CCc1ccccc1N1C(=O)c2cccc3c(N4CCOCC4)c([N+](=O)[O-])cc(c23)C1=O,"inconclusive: 25.1 µM [inhibitor, full curve]",–
CN1CCN(CCC(=O)N2c3ccccc3Sc3ccc(C(F)(F)F)cc32)CC1,"inconclusive: 89.1 µM [inhibitor, single point]",–
COc1ccc(OC)c(CN2CCC(C(=O)N3CCOCC3)CC2)c1,"inconclusive: 89.1 µM [inhibitor, single point]",–
Cc1ccc(C)c(OCCCCN2CCNCC2)c1C,–,inactive: -22.3%
CC1(C)CC(=O)C2=C(C1)NC(=S)C(C#N)C21CCCCC1 (centres undefined),"inconclusive: 44.7 µM [inhibitor, partial curve]",–
CCCn1c2ccccc2c2cnn(CC(=O)NCCCN3CCCCC3CC)c(=O)c21 (centres undefined),"inconclusive: 70.8 µM [inhibitor, single point]",–
O=C(NCCSc1c[nH]c2ccccc12)c1ccc(Br)o1,–,inactive: -10.4%
Cc1ccccc1NC(=O)Cn1cc(S(=O)(=O)c2ccccc2)c(=O)c2ccccc21,"inconclusive: 89.1 µM [inhibitor, single point]",–
CC1CCCCC1NC(=O)CSc1nnc(-c2ccncc2)n1CCCN(C)C (centres undefined),active: 44.7 µM,–
Cc1ccccc1NC(=O)C(=O)NCC(c1ccc2c(c1)OCO2)N1CCN(c2ccccc2)CC1 (centres undefined),"inconclusive: 3.98 µM [inhibitor, full curve]",–
N/N=C/C(=N\Nc1ccc(Cl)cc1)C(=O)c1ccncc1,"inconclusive: 31.6 µM [inhibitor, partial curve]",–
CCCn1cnc2cc(NCc3cccc(OC)c3)ccc21,"inconclusive: 50.1 µM [inhibitor, partial curve]",–
CCOC(=O)c1c(C)[nH]c2c1cc(O)c1ccccc12,"inconclusive: 79.4 µM [inhibitor, single point]",–
O=[N+]([O-])c1ccc(O)c(Nc2ncnc3ccccc23)c1,"inconclusive: 89.1 µM [inhibitor, single point]",–
O=c1c2ccccc2ncn1-c1ccc([N+](=O)[O-])cc1Cl,–,inactive: -20.1%
CN(C)/C=C1\N=C(c2cccnc2Oc2ccc(Cl)cc2)OC1=O,"inconclusive: 79.4 µM [inhibitor, single point]",–
